Where a name gives a salt, the structure may show the parent alone.
Biological target: μ opioid receptors (Rattus norvegicus, UniProt P33535)
Test: Opiate Binding Assay, displacement of 3[H]-DAMPGO from μ opioid receptors (rat forebrain membranes)
Conditions: ratio of the mean IC50 values for the μ and δ opioid receptors; above 1.0 = more specific for δ; printed on both the μ and δ line

UniProt P33535, sequence (P33535 whole entry): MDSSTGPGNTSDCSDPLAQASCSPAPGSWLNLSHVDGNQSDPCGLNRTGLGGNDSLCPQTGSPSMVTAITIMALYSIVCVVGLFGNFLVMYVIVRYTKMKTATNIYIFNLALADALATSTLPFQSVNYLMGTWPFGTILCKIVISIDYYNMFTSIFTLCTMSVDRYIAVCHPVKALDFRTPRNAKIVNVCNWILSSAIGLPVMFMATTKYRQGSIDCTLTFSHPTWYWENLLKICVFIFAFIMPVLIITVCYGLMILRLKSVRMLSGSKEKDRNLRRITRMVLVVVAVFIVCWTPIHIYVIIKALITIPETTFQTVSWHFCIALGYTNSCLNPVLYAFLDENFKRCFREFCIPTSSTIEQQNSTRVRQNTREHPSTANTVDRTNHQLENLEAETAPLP

| SMILES | Mean IC50 μ/δ Ratio |
| --- | --- |
| Cc1cc(O)cc(C)c1C[C@H](N)C(=O)NC(C)(C)CNC(=O)OCc1ccccc1 [Example 3, Phenylmethyl[2-[[2S-amino-3-(4-hydroxy-2,6-dimethylphenyl)-1-oxopropyl]amino]-2-methylpropyl]carbamate, monohydrochloride] | 6 |
| Cc1cc(O)cc(C)c1C[C@H](N)C(=O)NC(C)(C)CNC(=O)c1ccc2ccccc2n1 [Example 6, N-[2-[[2S-amino-3-(4-hydroxy-2,6-dimethylphenyl)-1-oxopropyl]amino]-2-methylpropyl]-2-quinolinecarboxamide, hydrochloride] | 0.4 |
| Cc1cc(O)cc(C)c1C[C@H](N)C(=O)NC(C)(C)CNC(=O)c1cnc2ccccc2c1 [Example 8, N-[2-[[2S-amino-3-(4-hydroxy-2,6-dimethylphenyl)-1-oxopropyl]amino]-2-methylpropyl]-3-quinolinecarboxamide, hydrochloride] | < 0.4 |
| Cc1cc(O)cc(C)c1C[C@H](N)C(=O)NC(C)(C)CNC(=O)NCc1ccccc1 [Example 10, αS-amino-N-[1,1-dimethyl-2-[[[(phenylmethyl)amino]carbonyl]amino]ethyl]-4-hydroxy.2,6-dimethylbenzenepropanamide, hydrochloride] | < 0.43 |
| Cc1cc(O)cc(C)c1C[C@H](N)C(=O)NCC(C)(C)NC(=O)NCc1ccccc1 [Example 11, αS-amino-4-hydroxy-2,6-dimethyl-N-[2-methyl-2-[[[(phenylmethyl)amino]carbonyl]amino]propyl]benzenepropanamide, hydrochloride] | 1.8 |
| Cc1cc(O)cc(C)c1C[C@H](N)C(=O)NC(C)(C)CNC(=O)CCc1ccccc1 [Example 13, αS-amino-N-[1,1-dimethyl-2-[(1-oxo-3-phenylpropyl)amino]ethyl]-4-hydroxy-2,6-dimethylbenzenepropanamide, hydrochloride] | < 1.8 |
| Cc1cc(O)cc(C)c1C[C@H](N)C(=O)NCC(C)(C)NC(=O)CCc1ccccc1 [Example 14, αS-Amino-4-hydroxy-2,6-dimethyl-N-[2-methyl-2-[(1-oxo-3-phenylpropyl)amino]propyl]benzenepropanamide, hydrochloride] | 0.4 |
| Cc1cc(O)cc(C)c1C[C@H](N)C(=O)N1CCN(Cc2ccccc2)CC1 [Example 15, 1-[2S-Amino-3-(4-hydroxy-2,6-dimethylphenyl)-1-oxopropyl]-4-(phenylmethyl)piperazine, dihydrochloride] | 0.3 |
| Cc1cc(O)cc(C)c1C[C@H](N)C(=O)NC(C)(C)CNC(=O)C#Cc1ccccc1 [Example 18, S-Amino-N-[1,1-dimethyl-2-[(1-oxo-3-phenyl-2-propynyl)amino]ethyl]-4-hydroxy-2,6-dimethylbenzenepropanamide, monohydrochloride] | < 1.1 |

From patent US5389645A, “Substituted tyrosyl diamine amide compounds” (G. D. Searle & Co., priority 1992, dated 1995)
